# Measurements from PubChem BioAssay AID1508624 (National Center for Advancing Translational Sciences (NCATS), 2021).
# Screen size: about 48,000 compounds; about 120 (0.25%) were called active. About 4% were inconclusive and are not listed. The call rests on the fitted dose curve; in most records, active means well fitted activation curve with a large enough effect; inconclusive means small, poorly fitted or top-dose-only effect, or another doubt; inactive means no such curve, though single readings can be large or run the other way. This is one part of the list.
# Test: Primary qHTS for Identification of Small Molecule Activators of Huntingtin-Antisense Promoter Activity; further: nearly all actives have a fitted effect of over 55% in size
# Conditions: HEK293 HTT-AS promoter firefly luciferase reporter, 24 h; series mostly up to 57.5 µM; activity change, positive = activation: at the top concentration
# Procedure, shortened: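 Firefly luciferase readout (Dual-Glo, 10 min RT) after 24 h, 37 °C compound exposure (final up to 57.5 uM) of HEK293 reporter cells cultured 24 h beforehand; PTC124 at 50 uM final as control inhibitor; activity scaled vehicle 0%, zero RLU -100%.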
row,Compound,"activity change, positive = activation"
1,COc1cc(Cl)c(C)cc1NC(=O)c1cc2c(Cl)nc3ccc(C)cc3c2s1,inactive: -3.7%
2,CCOc1ccccc1NC(=O)c1c(NC(=O)C(C)Oc2ccc(Cl)cc2)sc2c1CCCCC2 (configuration not stated),inactive: -40.8%
3,CCNC(=O)c1cnc2c(-c3ccccc3)c(C)nn2c1C,inactive: -6.12%
4,CC(C)CC1N=C2c3ccccc3N=C(SCC(=O)NCCc3ccc(Cl)cc3)N2C1=O (configuration not stated),inactive: 9.85%
5,CNC(=O)CN1C(=O)c2cccnc2Sc2ccccc21,inactive: -5.71%
6,CC(C)CCn1c(=O)c2sccc2n2c(CCCC(=O)NC(C)C)nnc12,inactive: -14.5%
7,COc1ccc(-c2nc3cc(C)ccn3c2NC(=O)c2ccc(C)c(C)c2)cc1,inactive: -9.03%
8,COc1ccc(-n2c(=O)c3c4c(sc3n(Cc3ccccc3Cl)c2=O)CCC4)c(OC)c1,inactive: 1.48%
9,COc1cccc(CNC(=O)CN(C)S(=O)(=O)c2ccc3[nH]c4c(c3c2)CCCC4)c1,inactive: -20%
10,Cc1cccc(OCC(=O)Nc2ccccc2OCc2cc(=O)n3ccccc3n2)c1,inactive: 3.54%
11,Cc1ccc(Cn2c(SCc3ccc(C(=O)N4CCCCCC4)cc3)nc3ccncc32)cc1,inactive: -45.7%
12,Cc1cccc(NC(=O)c2sc(-n3nc(C)c(Cc4ccc5c(c4)OCO5)c3C)nc2C)c1C,inactive: -16.8%
13,COc1ccc(-c2cc(C)no2)cc1S(=O)(=O)NC(C)C,inactive: -5.23%
14,COc1cccc(NC(=O)N2CCN3CCCCC3C2)c1 (configuration not stated),inactive: 8.06%
15,COc1cc(OC)cc(N2C(=O)N(CC(=O)c3ccc(F)cc3)c3ccccc3S2(=O)=O)c1,inactive: -10.5%
16,COc1ccc(CN2CCc3nc(SCC(=O)Nc4cc(C)cc(C)c4)[nH]c(=O)c3C2)cc1,inactive: -3.24%
17,COc1ccc(-c2noc(Cn3c(=O)c4ccccc4n(CC(=O)Nc4cccc(OC)c4)c3=O)n2)cc1,inactive: -19.8%
18,COc1ccc(-c2noc(CSc3nnc(C)n3-c3ccc(OC)cc3)n2)cc1,inactive: -23.1%
19,Cn1nnnc1SCCCNCc1ccccc1OCc1ccccc1Cl,inactive: -49.6%
20,Nc1nc(Cl)nc2c1ncn2[C@@H]1O[C@H](CO)[C@@H](O)[C@@H]1F,inactive: -20.5%
21,COc1ccccc1NC(=O)c1sc2nc(N3CCOCC3)c3c(c2c1N)CC(C)(C)OC3,inactive: -1.08%
22,Cc1ccc(NC(=O)CSc2ncc3c(n2)-c2ccc(Cl)cc2N(C)S3(=O)=O)cc1F,inactive: -13.2%
23,COc1ccc(-c2noc(-c3ccc(N4CCN(C)CC4)c([N+](=O)[O-])c3)n2)cc1OC,inactive: 25.2%
24,Cc1ccccc1-c1nnc(CN2CCN(c3ccccn3)CC2)o1,inactive: 8.58%

row,Compound,"activity change, positive = activation"
1,Cc1cc(Br)ccc1NC(=O)C1CCN(S(=O)(=O)c2cccc3nsnc23)CC1,inactive: -19.8%
2,COCCCNC(=O)C(=O)Nc1c2c(nn1-c1cccc(Cl)c1)CSC2,inactive: -16%
3,CNC(=O)Cn1cc(S(=O)(=O)Cc2ccccc2F)c2ccccc21,inactive: -11.1%
4,COC(=O)c1c(-c2cccs2)csc1NC(=O)COc1c(C)ccc(C)c1C,inactive: -17.2%
5,CCCCCSc1nc2sc3c(c2c(=O)n1-c1ccccc1)CCN(C(C)=O)C3,inactive: -50.2%
6,Cc1nn(C(=O)c2ccccc2F)c(C)c1S(=O)(=O)N1CCCCCC1,inactive: -11.8%
7,COc1ccc(-c2oc3ncn4nc(COc5c(C)cccc5C)nc4c3c2-c2ccc(OC)cc2)cc1,"inactive: 10.1% [at 11.5 µM, percent change from vehicle, -100% = no light]"
8,CCOc1ccccc1NC(=O)N1CCc2cc(S(=O)(=O)N3CCC(C)CC3)ccc21,inactive: -3.39%
9,Cc1ccc(N2C(=O)N(CC(=O)C(C)(C)C)c3ccccc3S2(=O)=O)cc1C,inactive: -37.4%
10,CCc1cccc(NC(=O)c2cc3c(=O)n(Cc4ccc(OC)cc4)ccc3nc2C)c1,inactive: -13.9%
11,CCOc1ccc(CCNC(=O)c2ccc(Nc3nc4ccccc4n4nnnc34)cc2)cc1OCC,inactive: -5.25%
12,CCOc1ccc(-c2cc(C(=O)N3CCN(S(=O)(=O)c4cc(Cl)ccc4OC)CC3)[nH]n2)cc1,inactive: -29.3%
13,Cc1ccc(C)c(N2CCN(C(=O)Cn3ncc4ccsc4c3=O)CC2)c1,inactive: -47.4%
14,CCOC(=O)c1ccc(NC(=O)c2c(N3CCCC3=O)c3cc(OC)ccc3n2C)cc1,inactive: -34.6%
15,Cc1cc2oc(C(=O)N(Cc3ccccc3F)C3CCS(=O)(=O)C3)c(C)c2cc1Cl (configuration not stated),inactive: -21.7%
16,Cc1c(Cl)cccc1NC(=O)CN1C(=O)COc2ccc(S(=O)(=O)N3CCOCC3)cc21,inactive: -13.2%
17,CC1=C(C(=O)OCC2CCCCC2)C(c2cccc(Cl)c2Cl)CC(=O)N1 (configuration not stated),inactive: -5.37%
18,Cc1ccc(C2CC(=O)Nc3cc4c(cc32)OCCO4)cc1 (configuration not stated),inactive: -25.7%
19,CCc1ccc(Cn2c(CNS(=O)(=O)c3ccc(F)c(Cl)c3)nc3cccnc32)cc1,inactive: -23.6%
20,CCOc1ccc(C(=O)c2oc3ccccc3c2NC(=O)Cc2coc3cc(C)cc(C)c23)cc1,inactive: -22.5%
21,CC(=O)N1CCCC1c1nc2ccccc2n1Cc1ccccc1 (configuration not stated),inactive: -3.53%
22,CCOC(=O)c1ccc(NC(=O)c2oc(=O)c3ccccc3c2-c2ccccc2)cc1,inactive: -21%
23,Cc1cccc(Cn2c(=O)n(CC3CCC(C(=O)N4CCOCC4)CC3)c(=O)c3sccc32)c1 (configuration not stated),inactive: -26.9%
